# According to PMC9911399, “Two distinct binding modes provide the RNA-binding protein RbFox with extraordinary sequence specificity”:
# Residue numbers refer to the chain shown, from its start. Some of the results follow.
# T1: RBFOX1 RRM RbFoxmut (Fox-RRM*) (Homo sapiens, UniProt Q9NWB1 109-208, R118D;E147R;N151S;E152T)
# T1 sequence: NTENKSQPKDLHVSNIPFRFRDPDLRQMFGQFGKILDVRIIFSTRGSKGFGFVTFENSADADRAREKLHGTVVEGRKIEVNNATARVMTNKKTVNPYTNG
# B1: AGUUACG (DNA:RNA)
# RNA: GGGAGACCGGAAUUCAGAUUGUCCAGUUACGUUAAAUCCCGUCGUAGCCACCA
# DNA 1: CAATCTGAATTCCGGTCTCCC
# DNA 2: TGGTGGCTACGACGGGATT
# B2: AACGCCC (DNA:RNA)
# RNA: B1 RNA with G26A, U27C, U28G, A29C, G31C
# DNA 1: CAATCTGAATTCCGGTCTCCC
# DNA 2: TGGTGGCTACGACGGGATT
# B3: UGUCUCC (DNA:RNA)
# RNA: B1 RNA with A25U, U28C, A29U, G31C
# DNA 1: CAATCTGAATTCCGGTCTCCC
# DNA 2: TGGTGGCTACGACGGGATT
# B4: CAGAUCU (DNA:RNA)
# RNA: B1 RNA with A25C, G26A, U27G, U28A, A29U, G31U
# DNA 1: CAATCTGAATTCCGGTCTCCC
# DNA 2: TGGTGGCTACGACGGGATT
# B5: CGACGCU (DNA:RNA)
# RNA: B1 RNA with A25C, U27A, U28C, A29G, G31U
# DNA 1: CAATCTGAATTCCGGTCTCCC
# DNA 2: TGGTGGCTACGACGGGATT
# B6: GGGACAU (DNA:RNA)
# RNA: B1 RNA with A25G, U27G, U28A, A29C, C30A, G31U
# DNA 1: CAATCTGAATTCCGGTCTCCC
# DNA 2: TGGTGGCTACGACGGGATT
# B7: UAACCCC (DNA:RNA)
# RNA: B1 RNA with A25U, G26A, U27A, U28C, A29C, G31C
# DNA 1: CAATCTGAATTCCGGTCTCCC
# DNA 2: TGGTGGCTACGACGGGATT
# B8: CCAGACG (DNA:RNA)
# RNA: B1 RNA with A25C, G26C, U27A, U28G
# DNA 1: CAATCTGAATTCCGGTCTCCC
# DNA 2: TGGTGGCTACGACGGGATT
# B9: AGCAAUA (DNA:RNA)
# RNA: B1 RNA with U27C, U28A, C30U, G31A
# DNA 1: CAATCTGAATTCCGGTCTCCC
# DNA 2: TGGTGGCTACGACGGGATT
# B10: GUGGCAC (DNA:RNA)
# RNA: GGGAGACCGGAAUUCAGAUUGUCCGUGGCACUUAAAUCCCGUCGUAGCCACCA
# DNA 1: CAATCTGAATTCCGGTCTCCC
# DNA 2: TGGTGGCTACGACGGGATT
# B11: ACCCGAG (DNA:RNA)
# RNA: B1 RNA with G26C, U27C, U28C, A29G, C30A
# DNA 1: CAATCTGAATTCCGGTCTCCC
# DNA 2: TGGTGGCTACGACGGGATT
# B12: UGCGGUU (DNA:RNA)
# RNA: B1 RNA with A25U, U27C, U28G, A29G, C30U, G31U
# DNA 1: CAATCTGAATTCCGGTCTCCC
# DNA 2: TGGTGGCTACGACGGGATT
# B13: ACUUAGU (DNA:RNA)
# RNA: B1 RNA with G26C, C30G, G31U
# DNA 1: CAATCTGAATTCCGGTCTCCC
# DNA 2: TGGTGGCTACGACGGGATT
# B14: UAAAUCA (DNA:RNA)
# RNA: B1 RNA with A25U, G26A, U27A, U28A, A29U, G31A
# DNA 1: CAATCTGAATTCCGGTCTCCC
# DNA 2: TGGTGGCTACGACGGGATT
# B15: CGAGAUC (DNA:RNA)
# RNA: B1 RNA with A25C, U27A, U28G, C30U, G31C
# DNA 1: CAATCTGAATTCCGGTCTCCC
# DNA 2: TGGTGGCTACGACGGGATT
# B16: ACGUACG (DNA:RNA)
# RNA: B1 RNA with G26C, U27G
# DNA 1: CAATCTGAATTCCGGTCTCCC
# DNA 2: TGGTGGCTACGACGGGATT
# B17: AACUCCA (DNA:RNA)
# RNA: B1 RNA with G26A, U27C, A29C, G31A
# DNA 1: CAATCTGAATTCCGGTCTCCC
# DNA 2: TGGTGGCTACGACGGGATT
# B18: GCGCAGU (DNA:RNA)
# RNA: B10 RNA with U26C, G28C, C29A, A30G, C31U
# DNA 1: CAATCTGAATTCCGGTCTCCC
# DNA 2: TGGTGGCTACGACGGGATT
# B19: CCCCUCC (DNA:RNA)
# RNA: B1 RNA with A25C, G26C, U27C, U28C, A29U, G31C
# DNA 1: CAATCTGAATTCCGGTCTCCC
# DNA 2: TGGTGGCTACGACGGGATT
# B20: GGGUUGU (DNA:RNA)
# RNA: B1 RNA with A25G, U27G, A29U, C30G, G31U
# DNA 1: CAATCTGAATTCCGGTCTCCC
# DNA 2: TGGTGGCTACGACGGGATT
# B21: ACUAUCC (DNA:RNA)
# RNA: B1 RNA with G26C, U28A, A29U, G31C
# DNA 1: CAATCTGAATTCCGGTCTCCC
# DNA 2: TGGTGGCTACGACGGGATT
# B22: GAAUGAA (DNA:RNA)
# RNA: B10 RNA with U26A, G27A, G28U, C29G, C31A
# DNA 1: CAATCTGAATTCCGGTCTCCC
# DNA 2: TGGTGGCTACGACGGGATT
# B23: CCAAGCC (DNA:RNA)
# RNA: B1 RNA with A25C, G26C, U27A, U28A, A29G, G31C
# DNA 1: CAATCTGAATTCCGGTCTCCC
# DNA 2: TGGTGGCTACGACGGGATT
# B24: UAAGGAU (DNA:RNA)
# RNA: B10 RNA with G25U, U26A, G27A, C29G, C31U
# DNA 1: CAATCTGAATTCCGGTCTCCC
# DNA 2: TGGTGGCTACGACGGGATT
# B25: AAUUAAC (DNA:RNA)
# RNA: B1 RNA with G26A, C30A, G31C
# DNA 1: CAATCTGAATTCCGGTCTCCC
# DNA 2: TGGTGGCTACGACGGGATT
# B26: GGCUAAA (DNA:RNA)
# RNA: B1 RNA with A25G, U27C, C30A, G31A
# DNA 1: CAATCTGAATTCCGGTCTCCC
# DNA 2: TGGTGGCTACGACGGGATT
# B27: AUUUAUC (DNA:RNA)
# RNA: B1 RNA with G26U, C30U, G31C
# DNA 1: CAATCTGAATTCCGGTCTCCC
# DNA 2: TGGTGGCTACGACGGGATT
# B28: CGGUGUU (DNA:RNA)
# RNA: B1 RNA with A25C, U27G, A29G, C30U, G31U
# DNA 1: CAATCTGAATTCCGGTCTCCC
# DNA 2: TGGTGGCTACGACGGGATT
# B29: UGUUCAG (DNA:RNA)
# RNA: B1 RNA with A25U, A29C, C30A
# DNA 1: CAATCTGAATTCCGGTCTCCC
# DNA 2: TGGTGGCTACGACGGGATT
# B30: CGCAGCC (DNA:RNA)
# RNA: B1 RNA with A25C, U27C, U28A, A29G, G31C
# DNA 1: CAATCTGAATTCCGGTCTCCC
# DNA 2: TGGTGGCTACGACGGGATT
# B31: CAGGGCG (DNA:RNA)
# RNA: B1 RNA with A25C, G26A, U27G, U28G, A29G
# DNA 1: CAATCTGAATTCCGGTCTCCC
# DNA 2: TGGTGGCTACGACGGGATT
# Target: T1, RBFOX1 RRM RbFoxmut (Fox-RRM*)
# Assay: EMSA; HiTS-Eq, 1 nM pool, 10 min; buffer printed only for the single-RNA assays: 10 mM Tris pH 7.5, 150 mM NaCl, 3.4 mM EDTA, 0.001% NP-40, 30 C
# Details: tags: His6 N-terminal (pET28a); label: 5' 32P
# How it was run: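 Purified RbFox RRM (wild type or mutant) was equilibrated for 10 min in 50 µL with 1 nM of a 5′-radiolabelled pool of RNA with 7 randomized nucleotides, its flanks annealed to DNA oligonucleotides, across increasing protein concentrations. Free RNA was separated by 8% native PAGE, excised, reverse-transcribed, PCR-barcoded and sequenced on an Illumina HiSeq 2500. Relative association constants came from read-count changes of each variant against the control reaction, normalised to the cognate motif.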
row,Binder,binding signal
1,B1,0.12 KA relative to UGCAUGU
2,B2,0.0509 KA relative to UGCAUGU
3,B3,0.153 KA relative to UGCAUGU
4,B4,0.0588 KA relative to UGCAUGU
5,B5,0.0924 KA relative to UGCAUGU
6,B6,0.0656 KA relative to UGCAUGU
7,B7,0.0798 KA relative to UGCAUGU
8,B8,0.0488 KA relative to UGCAUGU
9,B9,0.0997 KA relative to UGCAUGU
10,B10,0.0959 KA relative to UGCAUGU
11,B11,0.0876 KA relative to UGCAUGU
12,B12,0.098 KA relative to UGCAUGU
13,B13,0.142 KA relative to UGCAUGU
14,B14,0.0786 KA relative to UGCAUGU
15,B15,0.0647 KA relative to UGCAUGU
16,B16,0.136 KA relative to UGCAUGU

row,Binder,binding signal
1,B17,0.11 KA relative to UGCAUGU
2,B18,0.0815 KA relative to UGCAUGU
3,B19,0.0654 KA relative to UGCAUGU
4,B20,0.448 KA relative to UGCAUGU
5,B21,0.0886 KA relative to UGCAUGU
6,B22,0.873 KA relative to UGCAUGU
7,B23,0.109 KA relative to UGCAUGU
8,B24,0.0822 KA relative to UGCAUGU
9,B25,0.103 KA relative to UGCAUGU
10,B26,0.0819 KA relative to UGCAUGU
11,B27,0.111 KA relative to UGCAUGU
12,B28,0.11 KA relative to UGCAUGU
13,B29,0.0989 KA relative to UGCAUGU
14,B30,0.106 KA relative to UGCAUGU
15,B31,0.123 KA relative to UGCAUGU
